{"source": "the supplement of paper PMC11417369", "note": "The list shows a part of the results."}
{"tested_on": "PF3D7_0420300 AP2 domain 1 (GST-tagged)", "test": "gcPBM binding intensity (ln(normalized median fluorescence intensity)); higher = stronger DNA binding", "summary_of_the_method": "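An Agilent 4 × 180k array of primer-extended double-stranded 36-bp intergenic genomic probes, with negative controls, was incubated for 1 h with GST-tagged P. falciparum DNA-binding domains expressed in E. coli. Alexa488 anti-GST antibody detected bound protein, scanned at 488 nm. Binding intensity is the highest Masliner-normalised natural-log median intensity across replicate spots of either probe orientation.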"}
{"sequence": "AACAATAAATTATTATGTACACATATATTATATATA [XGTACX_site4629]", "gcPBM binding intensity (ln)": 9.21}
{"sequence": "ATATTTTAAAATAATACACACAAAATGATTCTTAAT [CACACA_site2930]", "gcPBM binding intensity (ln)": 9.55}
{"sequence": "ATAAGTATTACTAGTACACACAAGTTGTTAATCCTT [CACACA_site3324]", "gcPBM binding intensity (ln)": 9.61}
{"sequence": "TATATTATATAATTTTAACACACAAGAATATAAACT [CACACA_site8378]", "gcPBM binding intensity (ln)": 9.73}
{"sequence": "TATTTAAAATAATAACAAAATTAACATAAATATATA [GTGCAC_negctrl_site472]", "gcPBM binding intensity (ln)": 9.16}
{"sequence": "AATATGTTTTACGTCTCACACATATAGGTTTATATT [CACACA_site4713]", "gcPBM binding intensity (ln)": 9.5}
{"sequence": "CATAAATACAAATATACACACATATTTATATTTATA [CACACA_site7277]", "gcPBM binding intensity (ln)": 9.54}
{"sequence": "ATATATAGATGTGAATTATTTATATTATCTATTCTT [CACACA_negctrl_site518]", "gcPBM binding intensity (ln)": 9.25}
{"sequence": "ATTATACTTTCCATTCGTACATATATAAATAAATAA [XGTACX_site6245]", "gcPBM binding intensity (ln)": 9.28}
{"sequence": "AAAAAGAACACAAAAAGTACAAAAATTATAATGATA [XGTACX_site2676]", "gcPBM binding intensity (ln)": 9.61}
{"sequence": "AAACTTCAAAAAGAGCACTTGAATTTTTTTTTTTTT [TGCATGCA_negctrl_site133]", "gcPBM binding intensity (ln)": 8.9}
{"sequence": "ATATTATATCTAATCGTGCACAACTGTACATTTGTC", "gcPBM binding intensity (ln)": 9.29}
{"sequence": "CCCATGTAATATTAAACACACACTCATATAACACAA [CACACA_site7906]", "gcPBM binding intensity (ln)": 9.71}
{"sequence": "TTGTATCATATATTATGTACATATTTATTTATTATC [XGTACX_site7723]", "gcPBM binding intensity (ln)": 9.24}
{"sequence": "CAAAATATTTAAAAAAGTACTTAAAATAAATTCAAA [XGTACX_site6866]", "gcPBM binding intensity (ln)": 9.06}
{"sequence": "ATATTTAAATATATTTATATATATAAAAAAAAATAT [GTGCAC_negctrl_site312]", "gcPBM binding intensity (ln)": 9.11}
{"sequence": "CACACAACTATCAAGGTGCTAAAATGAAATAATATA [GTGCAC_site9871]", "gcPBM binding intensity (ln)": 9.08}
{"sequence": "AAAAAAATAAAAAATATATAAATAATTAATACATGT [GTGCAC_negctrl_site633]", "gcPBM binding intensity (ln)": 9.36}
{"sequence": "AATATAAATAAAAACACACACACACGGATATTTATA [CACACA_site7134]", "gcPBM binding intensity (ln)": 10.3}
{"sequence": "AAGGTGGGAAAAAATAGTACACAACAAAAATGTATG [XGTACX_site8741]", "gcPBM binding intensity (ln)": 9.38}
{"sequence": "ATATATCTATATGTGTGTACATATAAGTATTTATAT [XGTACX_site5333]", "gcPBM binding intensity (ln)": 9.41}
{"sequence": "ACATATAAACTGTATACACACAAATATTGCATATAT [CACACA_site6804]", "gcPBM binding intensity (ln)": 9.62}
{"sequence": "TACATTCTAAATATTACACACTTTATAAAATAATAA [CACACA_site4069]", "gcPBM binding intensity (ln)": 9.1}
{"sequence": "ATATATATAAATATATGTACTAATATATACATATAT [XGTACX_site2289]", "gcPBM binding intensity (ln)": 9.07}
